# Among all 360,000 compounds or so, about 25,000 (6.9%) were called active. Inconclusive means that the source gave no clear call. Such entries were picked first, then a sample of the others. Calls come from the whole dose curve; as a rule, active = well fitted inhibition curve with a large enough effect; inconclusive = small, poorly fitted or top-dose-only effect; inactive = flat fitted curve, though single readings scatter. Where the call is inconclusive, the potency comes from a doubtful curve fit.
# Molecular target: Luciferin 4-monooxygenase (Photinus pyralis) (UniProt P08659)
# Experiment: qHTS profiling assay for firefly luciferase inhibitor/activator using purifed enzyme and Km concentrations of substrates (counterscreen for miR-21 project); note: nearly all actives have a fitted effect of over 55% in size;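 for activity change, negative = inhibition: plate controls were vehicle for no effect and reference inhibitor for full effect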
# Details: purified FLuc, luminescence inhibition; series mostly up to 57.5 µM; activity change, negative = inhibition: at the top concentration
# Procedure, shortened: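 Purified P. pyralis luciferase, 10 nM final, with Km-level 10 uM D-luciferin and 10 uM ATP in 50 mM Tris acetate pH 7.5, 10 mM Mg acetate, 0.01% Tween-20, 0.05% BSA; 6-point qHTS titration about 60 µM downward; luminescence read.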
# Potency is the fitted concentration of half-maximal effect; tags give direction and shape of the fitted curve.
# UniProt P08659, sequence (P08659 whole entry, looked up): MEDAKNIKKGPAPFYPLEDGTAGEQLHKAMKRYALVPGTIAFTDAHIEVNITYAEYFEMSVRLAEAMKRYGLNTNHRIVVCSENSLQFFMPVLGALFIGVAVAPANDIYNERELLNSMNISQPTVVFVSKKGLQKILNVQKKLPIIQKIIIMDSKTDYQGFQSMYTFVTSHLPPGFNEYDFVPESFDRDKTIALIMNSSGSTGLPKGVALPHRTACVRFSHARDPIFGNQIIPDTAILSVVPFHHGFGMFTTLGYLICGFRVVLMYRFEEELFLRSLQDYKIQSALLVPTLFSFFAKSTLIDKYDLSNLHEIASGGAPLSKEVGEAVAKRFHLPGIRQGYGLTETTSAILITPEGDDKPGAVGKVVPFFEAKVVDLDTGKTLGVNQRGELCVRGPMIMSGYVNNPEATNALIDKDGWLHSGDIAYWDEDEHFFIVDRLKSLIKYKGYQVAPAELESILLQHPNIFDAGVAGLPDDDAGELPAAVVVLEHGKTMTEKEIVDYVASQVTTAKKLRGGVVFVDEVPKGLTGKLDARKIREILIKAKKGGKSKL
Structure (SMILES),"activity change, negative = inhibition",Potency
Cc1ccc(-n2nnnc2CNC(=O)c2ccccc2F)cc1C,inactive: -1.15%,–
Cc1nc(N2CCOCC2)nc(Oc2ccccc2)c1[N+](=O)[O-],inactive: -2.78%,–
COc1ccc(-c2cn3c(C)c(C(=O)NCCN4CCOCC4)sc3n2)cc1,–,"inconclusive: 23.9 µM [inhibitor, single point]"
COc1ccccc1OCc1ccc(C(=O)c2ccccc2)cc1,–,"inconclusive: 37.9 µM [inhibitor, single point]"
CC(=O)Nc1nnc(SCc2ccc(C(=O)Nc3ccccc3F)cc2)s1,inactive: 3.58%,–
CCOC(=O)c1ccc(NC(=O)CCn2cnnn2)cc1,inactive: 2.52%,–
CCCCn1nnc(NC(=O)c2ccc(-c3cccc(Cl)c3)o2)n1,–,"inconclusive: 26.9 µM [inhibitor, single point]"
O=C(O)C(Cc1c[nH]c2ccccc12)N1Cc2ccccc2C1=O (centres undefined),–,"inconclusive: 21.3 µM [inhibitor, single point]"
O=C(NC(=S)NCC1CCCO1)c1ccccc1 (centres undefined),–,"inconclusive: 15.1 µM [inhibitor, partial curve]"
COc1cc(/C=C2\SC(=Nc3ccc(Cl)c(C(=O)O)c3)NC2=O)c(Br)c(Br)c1O,–,"inconclusive: 26.9 µM [inhibitor, single point]"
Cc1sc(N)nc1-c1ccc2c(c1)OCCO2,–,"inconclusive: 26.9 µM [inhibitor, partial curve, poor fit]"
Nc1nnc(-c2ccccc2[N+](=O)[O-])o1,inactive: -7.62%,–
c1cn2c(Nc3ccc4c(c3)OCCO4)c(-c3ccc(N4CCOCC4)cc3)nc2cn1,–,active: 2.69 µM
O=C(O)c1ccccc1Nc1ccc([N+](=O)[O-])cc1,–,"inconclusive: 26.9 µM [inhibitor, single point]"
CC(C)c1ccc(-c2nc3ccccc3s2)cc1,–,active: 0.0757 µM
Cc1occc1C(=O)N/N=C/c1ccc(OCc2ccccc2)cc1,–,"inconclusive: 5.36 µM [inhibitor, partial curve]"
N/C(=N\OC(=O)CCCOc1ccc(Cl)cc1Cl)c1ccncc1,–,"inconclusive: 37.9 µM [inhibitor, partial curve, poor fit]"
O=C(COC(=O)c1cccc(Cl)c1Cl)NC1CCCC1,–,"inconclusive: 23.9 µM [inhibitor, single point]"
CCCCNC(=O)c1onc(CSc2cccc(Cl)c2)c1C(=O)O,–,"inconclusive: 30.1 µM [inhibitor, single point]"
CCc1ccc(NC(=O)c2cnc3scc(C)n3c2=O)cc1,–,"inconclusive: 9.53 µM [inhibitor, partial curve]"
Cc1ccc(C2=NN(S(C)(=O)=O)C(c3ccc4nccnc4c3)C2)cc1 (centres undefined),–,"inconclusive: 21.3 µM [inhibitor, partial curve]"
COc1ccc(-c2cc3c(=O)n(CC(=O)Nc4ccc(C(C)=O)cc4)ncn3n2)cc1,–,"inconclusive: 1.35 µM [inhibitor, full curve]"

Structure (SMILES),"activity change, negative = inhibition",Potency
O=C(O)C/C(=C\c1cccc(NC(=O)c2ccccc2Cl)c1)c1nc2ccccc2s1,–,"inconclusive: 37.9 µM [inhibitor, single point]"
Cc1cc(C(=O)Nc2cnc3ccccc3c2)ccc1[N+](=O)[O-],–,"inconclusive: 1.9 µM [inhibitor, partial curve, poor fit]"
Cc1ccc(S(=O)(=O)N2CCCCC2)cc1NC(=O)COC(=O)C1(C)CC1(Cl)Cl (centres undefined),inactive: -2.98%,–
Nc1nc2c(c(=O)[nH]1)C(c1cccc3ccccc13)C1=C(N2)c2ccccc2C1=O (centres undefined),inactive: -12.3%,–
C=CCn1c(O)c(N=Nc2ccccc2)c2ccccc21,–,"inconclusive: 15.1 µM [inhibitor, partial curve, poor fit]"
CCOCCCNC(=O)c1cc(Cl)c(NC(=O)C2=C(C)OCCS2)cc1OC,–,"inconclusive: 37.9 µM [inhibitor, partial curve, poor fit]"
CCOC(=O)c1cccc(NC(c2nnc(-c3ccccc3)o2)c2ccccc2F)c1 (centres undefined),–,"inconclusive: 15.1 µM [inhibitor, partial curve, poor fit]"
Cc1cc(-c2nc3ccccc3[nH]2)ccc1N,–,active: 4.26 µM
CCOc1ccc(NC(=O)c2cccc(NC(=O)c3ccccc3)c2)cc1,–,"inconclusive: 4.78 µM [inhibitor, partial curve]"
Fc1ccc(/C=N/NC(=S)Nc2ccc(Cl)cc2)cc1F,–,"inconclusive: 37.9 µM [inhibitor, partial curve, poor fit]"
C=CCNC(=O)c1onc(CSc2ccccc2)c1C(=O)O,–,"inconclusive: 23.9 µM [inhibitor, partial curve, poor fit]"
CN(Cc1ccccc1)C(=O)c1ccc(NC(=O)Cc2cccc(NC(=O)C3CCN(C(=O)C4CCC4)CC3)c2)cc1,inactive: -20.6%,–
CCOc1ccc2nc(N3CCCC(C(=O)NCc4ccccc4Cl)C3)sc2c1 (centres undefined),–,"inconclusive: 2.39 µM [inhibitor, full curve]"
COc1ccc(OC)c(C2C(C(=O)c3ccco3)=C(O)C(=O)N2CC2CCCO2)c1 (centres undefined),inactive: 0.476%,–
Cc1c(N2C(=O)/C(=C\c3ccc(N(C)C)cc3)N(C)C2=S)c(=O)n(-c2ccccc2)n1C,–,"inconclusive: 30.1 µM [inhibitor, single point]"
Clc1ccc(C#Cc2cccnc2)cc1,–,active: 13.5 µM
CCNC(=S)N1CCC(c2nc3cc(C)c(C)cc3[nH]2)CC1,–,"inconclusive: 21.3 µM [inhibitor, partial curve, poor fit]"
COc1ccc(C=O)cc1COc1ccc2c(c1)OCO2,–,"inconclusive: 37.9 µM [inhibitor, partial curve, poor fit]"
CC(C)CNC(=O)c1cccc(NC(=O)c2ccc3c(c2)C(=O)N(C)C3=O)c1,–,"inconclusive: 37.9 µM [inhibitor, partial curve, poor fit]"
Cc1ccccc1Cn1cc(NC(=O)c2nn(C)cc2Cl)cn1,–,"inconclusive: 30.1 µM [inhibitor, single point]"
CCc1ccc(NC(=O)CSc2nc(C)cc(COC)c2C#N)cc1,inactive: 5.75%,–
COC(=O)c1sccc1NC(=O)Nc1ccc(C)cc1,–,active: 1.69 µM
